The text below walks through data of the supplement of paper PMC11171410.

In one test the test system is SUDHL6 parental. Description: estimated IC50 (cell viability); higher = less potent.
In test [1] the test system is SUDHL6 venetoclax-resistant. The test is described as above.

Each structure is given as a SMILES string. Several values for one entry are separate records, joined by “and”; a condition that tells them apart may be missing. Identical values can stand only once. ± gives the standard deviation of the averaged measurements. Repeats are few or missing, and single values can be far off.
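Further: compound screen comparing venetoclax-resistant SUDHL6, derived by months of escalating venetoclax exposure, with its matched parental line, IC50 from one-site nonlinear dose–response fit, geometric mean for duplicated compounds.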

Regarding `CC(C)(C)c1cnc(CSc2cnc(NC(=O)C3CCNCC3)s2)o1`, the entries for the “estimated IC50” value (with SUDHL6 parental; in test [1]) were 0.63 µM and 0.39 µM, respectively. In the same order, the values of `CC(C)Oc1ccc(C(=O)N[C@H](CNC(=O)CN(C)C)Cc2ccc(-c3cn4cccc([C@H](C)O)c4n3)cc2)cc1Cl` are 1.38 µM and 0.21 µM. Turning to `CC(C)c1c2cc(-c3ccnc(NC4CCC(NC5CCOCC5)CC4)n3)ccc2nn1C` (stereo not drawn), the “estimated IC50” value with SUDHL6 parental was 2.42 µM; in test [1] it was 1.47 µM.

Consider `CC(C)c1cc(C(=O)N2Cc3ccc(CN4CCN(C)CC4)cc3C2)c(O)cc1O`, for which the figures for the “estimated IC50” value (in the test with SUDHL6 parental; in test [1]) were 0.59 µM and 0.35 µM, respectively. Turning to `CC1(COc2ccc3c(c2)ncn3-c2ccc3cccc(N4CCC(N)CC4)c3n2)COC1`, the “estimated IC50” value in the test with SUDHL6 parental was 8.8 µM; in test [1], 5.5 µM. On the same counts, the results for `CCc1cncnc1N1CCN(Cc2nc3ccc(C(F)(F)F)cc3[nH]2)CC1` are over 10 µM and 5.82 µM.

Regarding `CCn1c(-c2nonc2N)nc2c(C#CC(C)(C)O)ncc(OC[C@H]3CCCNC3)c21`, the “estimated IC50” value with SUDHL6 parental was over 10 µM; in test [1], 6.56 µM.

For `CCn1c(=O)c(-c2cc[nH]n2)cc2c(C)nc(N)nc21`, the “estimated IC50” value with SUDHL6 parental was 2.1 µM; in test [1] it was 1.2 µM.

`CCn1c(CO)nn(-c2cc(O[C@@H](C)C(F)(F)F)c(C(=O)Nc3c(F)cccc3Cl)cc2F)c1=O`: in the test with SUDHL6 parental, the “estimated IC50” value is 0.001 µM.

Consider `CN(c1ncccc1CNc1nc(Nc2ccc3c(c2)CC(=O)N3)ncc1C(F)(F)F)S(C)(=O)=O`, for which the “estimated IC50” value is 5.15 µM and 5.6 µM in the test with SUDHL6 parental; 2.55 µM and 3.4 µM in test [1]. For the compound `CN1C(=O)C(C)(C)Oc2c(-c3cn(C)c(=O)c4[nH]ccc34)cc(S(C)(=O)=O)cc21`, the “estimated IC50” value was 1.74 µM in the test on SUDHL6 parental and 1 µM in test [1]. On the same counts, the results for `CNCc1ccc(C)c(NC(=O)c2ccc(Nc3nc(-c4ccccc4)c4ccccc4n3)cc2)c1` are 4.83 ± 1.1 µM and 1.97 ± 0.11 µM. On the same counts, the results for `CNS(=O)(=O)Nc1nccc(Cc2c(C)c3ccc(Oc4ncccn4)cc3oc2=O)c1F` are 9.6 µM and 4.7 µM.

As for `COc1cc(C2c3cc4c(cc3C(O)C3COC(=O)C23)OCO4)cc(OC)c1O` (stereo not drawn), the “estimated IC50” value with SUDHL6 parental was 0.9 µM; in test [1], 0.6 µM. Regarding `COc1cc(F)ccc1-c1cc(Nc2cc(CS(C)(=N)=O)ccn2)ncc1F` (stereo not drawn), the “estimated IC50” value in the test on SUDHL6 parental was 0.29 µM; in test [1] it was 0.16 µM.

For `COc1cc(F)ccc1-c1ncnc(Nc2cccc(C[S@](C)(=N)=O)c2)n1`, the “estimated IC50” value in the test on SUDHL6 parental is 1.79 µM; in test [1], 0.94 µM.

On to `COc1cc(N2CCC(N(C)C)CC2)ccc1Nc1ncc(Cl)c(Nc2ccccc2P(C)(C)=O)n1`, for which the figures for the “estimated IC50” value (in the test with SUDHL6 parental; in test [1]) were 6.6 µM and 4 µM, respectively.

With `COc1cc(OC)c(/C=C/S(=O)(=O)Cc2ccc(OC)c(NCC(=O)O)c2)c(OC)c1`, the “estimated IC50” value in the test with SUDHL6 parental is 0.08 µM; in test [1] it was 0.05 µM.

As for `COc1cc2c(Oc3ccc(NC(=O)C4(C(=O)Nc5ccc(F)cc5)CC4)cc3F)ccnc2cc1OCCCN1CCOCC1`, the “estimated IC50” value is 4.55 µM with SUDHL6 parental and 2.66 µM in test [1]. For the compound `COc1cc2c(cc1-c1c(C)noc1C)ncc1[nH]c(=O)n([C@H](C)c3ccccn3)c12`, the figures for the “estimated IC50” value (with SUDHL6 parental; in test [1]) were over 10 µM and 1.4 µM, respectively.

With `COc1ccc(-c2cc3c(C)nc(N)nc3n([C@H]3CC[C@H](OCCO)CC3)c2=O)cn1`, the “estimated IC50” value was 0.48 µM in the test on SUDHL6 parental and 0.07 µM in test [1]. On the same counts, the results for `COc1ccc(CC(=O)Nc2nc3c(s2)CCc2ccccc2-3)cc1OC` are 7.46 µM and 3.75 µM. `COc1ncc(-c2ccc3nccc(-c4ccnnc4)c3c2)cc1NS(=O)(=O)c1ccc(F)cc1F`: the “estimated IC50” value in the test on SUDHL6 parental was 0.041 µM; in test [1], 0.005 µM. On to `CS(=O)(=O)N1CCN(C(=O)CNC(=O)/C=C/c2ccc(Cl)c(Cl)c2)CC1`, for which the “estimated IC50” value is 0.16 µM in the test on SUDHL6 parental and 0.02 µM in test [1]. On to `C[C@@H](C(=O)Nc1ccc(Cl)cc1)C1CCC(c2ccnc3ccc(F)cc23)CC1` (stereo partly drawn), for which the entries for the “estimated IC50” value (in the test with SUDHL6 parental; in test [1]) were 6.51 µM and 1.52 µM, respectively. On the same counts, the results for `Cc1[nH]nc2ccc(-c3cncc(OC[C@@H](N)Cc4ccccc4)c3)cc12` are 3.13 µM and 1.89 µM. As for `Cc1cc(N2CCOCC2)ccc1Nc1nc(NC2CCCCC2)c2[nH]cnc2n1`, the figures for the “estimated IC50” value (with SUDHL6 parental; in test [1]) were 5.2 µM and 2.62 µM, respectively. On the same counts, the results for `Cc1cc(Nc2cc(CN3CCOCC3)c3nc(C)c(Cc4ccc(Cl)cc4F)n3n2)n[nH]1` are 8.74 µM and 5.01 µM. Regarding `Cc1ccc(C(=O)N(CCCN)[C@@H](c2nc3cc(Cl)ccc3c(=O)n2Cc2ccccc2)C(C)C)cc1`, the “estimated IC50” value in the test with SUDHL6 parental was 0.07 µM; in test [1], 0.04 µM. Turning to `Cc1ccc(C(=O)Nc2ccc(CN3CCN(C)CC3)c(C(F)(F)F)c2)cc1C#Cc1cnc2cccnn12`, the entries for the “estimated IC50” value (in the test on SUDHL6 parental; in test [1]) were 6.95 µM and 1.33 µM, respectively. On to `Cc1cccc(CC(=O)N2CCc3c2ccc(-c2cn(C)c4ncnc(N)c24)c3F)n1`, for which the “estimated IC50” value in the test with SUDHL6 parental is 8.3 µM; in test [1], 5.2 µM. For the compound `Cc1cccc(Nc2nc(NC3CCCCC3N)ncc2C(N)=O)c1` (stereo not drawn), the “estimated IC50” value in the test on SUDHL6 parental is 8.76 µM; in test [1], 4.35 µM. `Cc1cnc(Nc2ccc(N3CCN(C)CC3)cc2)nc1Nc1cccc(S(=O)(=O)NC(C)(C)C)c1`: the “estimated IC50” value in the test on SUDHL6 parental is 6.8 µM; in test [1], 3.5 µM.

With `Cc1cnc(Nc2ccc(OCCN3CCCC3)cc2)nc1Nc1cccc(S(=O)(=O)NC(C)(C)C)c1`, the figures for the “estimated IC50” value (with SUDHL6 parental; in test [1]) were 7.6 µM and 4 µM, respectively. As to `Cc1noc(C)c1-c1ccc2[nH]c(=O)n3c2c1OC[C@@H]3c1ccccn1`, the “estimated IC50” value in the test on SUDHL6 parental was 1.83 µM; in test [1], 0.84 µM.

With `Cn1cc(-c2cc(S(C)(=O)=O)ccc2OCC2CC2)c2ccccc2c1=O`, the “estimated IC50” value was 2.23 µM with SUDHL6 parental and 1.25 µM in test [1]. On to `NC(=O)c1ccccc1Nc1ccnc(Nc2cccc(O)c2)n1`, for which the “estimated IC50” value with SUDHL6 parental is 6.69 µM; in test [1], 3.95 µM. Take `NC(=O)c1cnc(N[C@@H]2CCCC[C@@H]2N)nc1Nc1cccc(-n2nccn2)c1`: the entries for the “estimated IC50” value (in the test with SUDHL6 parental; in test [1]) were 7.43 µM and 3.83 µM, respectively.

For `Nc1nc(Nc2ccc(S(N)(=O)=O)cc2)nn1C(=O)c1c(F)cccc1F`, the “estimated IC50” value was 6.04 µM in the test with SUDHL6 parental and 3.45 µM in test [1].

Regarding `O=C(NCCN1CCOCC1)Nc1ccc(C(=O)/C=C/c2cccc(N3CCOCC3)n2)cc1`, the figures for the “estimated IC50” value (in the test on SUDHL6 parental; in test [1]) were 3.59 µM and 2.01 µM, respectively. In the same order, the values of `O=C(c1ccccc1)c1ccc2nc(NC(=O)c3csc(C4CCN(c5ncnc6ccsc56)CC4)n3)[nH]c2c1` are 9.62 µM and 5.65 µM. As to `O=c1cc(-c2cccc3c2Sc2ccccc2S3)oc(N2CCOCC2)c1`, the “estimated IC50” value in the test on SUDHL6 parental is 7.9 µM; in test [1], 2.55 µM.

With `O=c1cc(N2CCNCC2)oc2c(-c3ccccc3)cccc12`, the “estimated IC50” value in the test on SUDHL6 parental was over 10 µM; in test [1], 4.08 µM.

For `c1cc(-c2cnn3cc(-c4ccc(N5CCNCC5)cc4)cnc23)c2cccnc2c1`, the “estimated IC50” value with SUDHL6 parental is 1.2 µM; in test [1], 0.37 µM.

Consider `O=C(NCc1ccc(S(=O)(=O)c2cc(F)cc(F)c2)cc1)c1ccc2nccn2c1` [GNE-617], for which the “estimated IC50” value in the test with SUDHL6 parental is 0.002 µM.
